# Measurements as given in the supplement of paper PMC8728848.
# The other results are listed elsewhere or left out.
# Columns and labels:
# Experiment in all cases: glycan array binding signal (z-score within array); higher = stronger binding
# Conditions in all cases: glycan notation: IUPAC condensed, linker removed
# [1] = target: GlcNAc(b1-3)Gal(b1-4)GlcNAc(b1-3)Gal(b1-4)GlcNAc(b1-3)Gal(b1-4)GlcNAc(b1-3)Gal(b1-4)GlcNAc(b1-2)[GlcNAc(b1-3)Gal(b1-4)GlcNAc(b1-3)Gal(b1-4)GlcNAc(b1-3)Gal(b1-4)GlcNAc(b1-3)Gal(b1-4)GlcNAc(b1-6)]Man(a1-6)[GlcNAc(b1-3)Gal(b1-4)GlcNAc(b1-3)Gal(b1-4)GlcNAc(b1-3)Gal(b1-4)GlcNAc(b1-3)Gal(b1-4)GlcNAc(b1-2)Man(a1-3)]Man(b1-4)GlcNAc(b1-4)[Fuc(a1-6)]GlcNAc
# Procedure, shortened: (§1)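 Columns mapping to the same glycan were averaged after glycan names were converted to IUPAC-condensed notation. The data come from 3228 arrays in the Consortium for Functional Glycomics database, limited to those with an available protein sequence. Binding is reported as a within-array Z-score averaged across arrays of one protein sequence and across linkers.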
# [2] = target: GlcNAc(b1-3)Gal(b1-4)GlcNAc(b1-3)Gal(b1-4)GlcNAc(b1-3)GalNAc
# Procedure, shortened: as §1
# [3] = target: GlcNAc(b1-3)Gal(b1-4)GlcNAc(b1-3)GalNAc
# Procedure, shortened: as §1
# [4] = target: GlcNAc(b1-3)Gal(b1-4)GlcNAc(b1-3)[GlcNAc(b1-3)Gal(b1-4)GlcNAc(b1-3)]GalNAc
# Procedure, shortened: as §1
# [5] = target: GlcNAc(b1-3)Gal(b1-4)GlcNAc(b1-6)[Gal(b1-3)]GalNAc
# Procedure, shortened: as §1
# [6] = target: GlcNAc(b1-3)Gal(b1-4)GlcNAc(b1-6)[GlcNAc(b1-3)Gal(b1-3)]GalNAc
# Procedure, shortened: as §1
# [7] = target: GlcNAc(b1-3)Gal(b1-4)GlcNAc(b1-6)[GlcNAc(b1-3)]Gal(b1-4)GlcNAc
# Procedure, shortened: as §1
# [8] = target: GlcNAc(b1-3)GalNAc
# Procedure, shortened: as §1
# [9] = target: GlcNAc(b1-3)Man
# Procedure, shortened: as §1
# [10] = target: GlcNAc(b1-3)[GlcNAc(b1-4)][GlcNAc(b1-6)]GlcNAc
# Procedure, shortened: as §1
# [11] = target: GlcNAc(b1-3)[GlcNAc(b1-6)]Gal(b1-4)GlcNAc
# Procedure, shortened: as §1
# [12] = target: GlcNAc(b1-3)[GlcNAc(b1-6)]GalNAc
# Procedure, shortened: as §1
# [13] = target: GlcNAc(b1-4)Gal(b1-4)GlcNAc
# Procedure, shortened: as §1
# [14] = target: GlcNAc(b1-4)GlcNAc
# Procedure, shortened: as §1
# [15] = target: GlcNAc(b1-4)GlcNAc(b1-4)GlcNAc
# Procedure, shortened: as §1
# [16] = target: GlcNAc(b1-4)GlcNAc(b1-4)GlcNAc(b1-4)GlcNAc(b1-4)GlcNAc
# Procedure, shortened: as §1
# [17] = target: GlcNAc(b1-4)GlcNAc(b1-4)GlcNAc(b1-4)GlcNAc(b1-4)GlcNAc(b1-4)GlcNAc
# Procedure, shortened: as §1
# [18] = target: GlcNAc(b1-4)[GlcNAc(b1-6)]GalNAc
# Procedure, shortened: as §1
# [19] = target: GlcNAc(b1-6)Gal(b1-4)GlcNAc
# Procedure, shortened: as §1
# [20] = target: GlcNAc(b1-6)GalNAc
# Procedure, shortened: as §1
# [21] = target: GlcNAc6S(b1-3)Gal(b1-4)GlcNAc
# Procedure, shortened: as §1
# [22] = target: Kdn(a2-3)Gal(b1-3)GalNAc
# Procedure, shortened: as §1
# [23] = target: Kdn(a2-3)Gal(b1-3)GlcNAc
# Procedure, shortened: as §1
# [24] = target: Kdn(a2-3)Gal(b1-4)Glc
# Procedure, shortened: as §1
# [25] = target: Kdn(a2-3)Gal(b1-4)GlcNAc
# Procedure, shortened: as §1
# [26] = target: Kdn(a2-3)Gal(b1-4)[Fuc(a1-3)]GlcNAc
# Procedure, shortened: as §1
# [27] = target: Kdn(a2-6)Gal(b1-4)GlcNAc
# Procedure, shortened: as §1
# [28] = target: Man(a1-2)Man(a1-2)Man(a1-3)Man
# Procedure, shortened: as §1
# [29] = target: Man(a1-2)Man(a1-2)Man(a1-6)[Man(a1-3)]Man
# Procedure, shortened: as §1
# [30] = target: Man(a1-2)Man(a1-3)Man
# Procedure, shortened: as §1
# [31] = target: Man(a1-2)Man(a1-3)[Man(a1-2)Man(a1-6)]Man
# Procedure, shortened: as §1
# [32] = target: Man(a1-2)Man(a1-3)[Man(a1-2)Man(a1-6)]Man(a1-6)[Man(a1-2)Man(a1-2)Man(a1-3)]Man
# Procedure, shortened: as §1
# [33] = target: Man(a1-2)Man(a1-3)[Man(a1-2)Man(a1-6)]Man(a1-6)[Man(a1-2)Man(a1-2)Man(a1-3)]Man(b1-4)GlcNAc(b1-4)GlcNAc
# Procedure, shortened: as §1
# [34] = target: Man(a1-2)Man(a1-3)[Man(a1-6)]Man(a1-6)[Man(a1-2)Man(a1-3)]Man(b1-4)GlcNAc(b1-4)GlcNAc
# Procedure, shortened: as §1
# [35] = target: Man(a1-2)Man(a1-6)[Man(a1-3)]Man(a1-6)[Man(a1-2)Man(a1-2)Man(a1-3)]Man
# Procedure, shortened: as §1
# [36] = target: Man(a1-2)Man(a1-6)[Man(a1-3)]Man(a1-6)[Man(a1-2)Man(a1-2)Man(a1-3)]Man(b1-4)GlcNAc(b1-4)GlcNAc
# Procedure, shortened: as §1
# [37] = target: Man(a1-3)[Man(a1-6)]Man
# Procedure, shortened: as §1
# [38] = target: Man(a1-3)[Man(a1-6)]Man(a1-6)[Man(a1-2)Man(a1-3)]Man(b1-4)GlcNAc(b1-4)GlcNAc
# Procedure, shortened: as §1
# [39] = target: Man(a1-3)[Man(a1-6)]Man(a1-6)[Man(a1-3)]Man
# Procedure, shortened: as §1
# [40] = target: Man(a1-3)[Man(a1-6)]Man(a1-6)[Man(a1-3)]Man(b1-4)GlcNAc(b1-4)GlcNAc
# Procedure, shortened: as §1
# [41] = target: Man(a1-3)[Man(a1-6)]Man(b1-4)GlcNAc(b1-4)GlcNAc
# Procedure, shortened: as §1
# [42] = target: Man(a1-3)[Man(a1-6)]Man(b1-4)GlcNAc(b1-4)[Fuc(a1-6)]GlcNAc
# Procedure, shortened: as §1
# [43] = target: Man(a1-6)Man
# Procedure, shortened: as §1
# [44] = target: Man(b1-4)GlcNAc
# Procedure, shortened: as §1
# [45] = target: MurNAc(b1-4)GlcNAc
# Procedure, shortened: as §1
# [46] = target: Neu5Ac(a2-3)Gal
# Procedure, shortened: as §1
# [47] = target: Neu5Ac(a2-3)Gal(b1-3)GalNAc
# Procedure, shortened: as §1
# [48] = target: Neu5Ac(a2-3)Gal(b1-3)GalNAc(b1-3)Gal(a1-4)Gal(b1-4)Glc
# Procedure, shortened: as §1
# [49] = target: Neu5Ac(a2-3)Gal(b1-3)GalNAc(b1-4)[Neu5Ac(a2-3)]Gal(b1-4)Glc
# Procedure, shortened: as §1
# [50] = target: Neu5Ac(a2-3)Gal(b1-3)GalNAc(b1-4)[Neu5Ac(a2-8)Neu5Ac(a2-3)]Gal(b1-4)Glc
# Procedure, shortened: as §1
# [51] = target: Neu5Ac(a2-3)Gal(b1-3)GalNAc6S
# Procedure, shortened: as §1
# [52] = target: Neu5Ac(a2-3)Gal(b1-3)GlcNAc
# Procedure, shortened: as §1
# [53] = target: Neu5Ac(a2-3)Gal(b1-3)GlcNAc(b1-2)Man
# Procedure, shortened: as §1
# [54] = target: Neu5Ac(a2-3)Gal(b1-3)GlcNAc(b1-2)Man(a1-3)[GlcNAc(b1-4)][Neu5Ac(a2-3)Gal(b1-3)GlcNAc(b1-2)Man(a1-6)]Man(b1-4)GlcNAc(b1-4)GlcNAc
# Procedure, shortened: as §1
# [55] = target: Neu5Ac(a2-3)Gal(b1-3)GlcNAc(b1-2)Man(a1-3)[Neu5Ac(a2-3)Gal(b1-3)GlcNAc(b1-2)Man(a1-6)]Man(b1-4)GlcNAc(b1-4)GlcNAc
# Procedure, shortened: as §1
# [56] = target: Neu5Ac(a2-3)Gal(b1-3)GlcNAc(b1-3)Gal(b1-3)GlcNAc
# Procedure, shortened: as §1
# [57] = target: Neu5Ac(a2-3)Gal(b1-3)GlcNAc(b1-3)Gal(b1-4)GlcNAc
# Procedure, shortened: as §1
# [58] = target: Neu5Ac(a2-3)Gal(b1-3)GlcNAc(b1-3)GalNAc
# Procedure, shortened: as §1
# [59] = target: Neu5Ac(a2-3)Gal(b1-3)GlcNAc(b1-4)Gal(b1-4)Glc
# Procedure, shortened: as §1
# [60] = target: Neu5Ac(a2-3)Gal(b1-3)GlcNAc(b1-6)GalNAc
# Procedure, shortened: as §1
binder,measurement,setting,value
CvGal2 (Crassostrea virginica) (protein) MGSSHHHHHHSSGLVPRGSHMRIREAGKRKDTTKVYQIPDGLFPGQQVMLRGRVPWGSKSFSINFSATPRMGEGDILFHLNPRPSEGVCIRNALLNGSWGAEEKWQPYFPFDDGRSFSVKIEVTNDAFRTFVNGRPFVDFLHRTDFRAGKYLTLREGAEYYDVIFQSKPNIPLTTAIHNGMRIGKTIRIRGMCTAQDGFAINFNDNRNNIYFHFNARPAQRTVVRNSYFGSWGNEETAISKEFPFYPFLYFYASFVCMEDKFAVYVNDEHFIDFAHRGNPNNISVLQIKGSVNVLDTECLEPMGEDAMTEVDSGLENGDLFVLNGLMTERGKTFAVNFLNGFTENDDIALHFNPRKSTGEVVLNSRYGGAWQSEEKVALPGVFWSNRPLQVKVETKRNKFKIYVNGVDLAKYKIRGNVEDVHAVQVKGDVFLLETLLLKRLMKPVWERLTGGIRPGTWVTLQGTPKKNWQQFVVNFALDDTLDGDIAFHFNVRRGARQVVRNHRQSGAWGREETVTPFFAFDSEATFEIVFFVKEEKFLIYFNGKLFFEFVHRVPVERITHIYMDGDCNFYEPEVVI,glycan array binding signal (z-score),[1],0.428
same,glycan array binding signal (z-score),[2],-0.34
same,glycan array binding signal (z-score),[3],-0.321
same,glycan array binding signal (z-score),[4],-0.338
same,glycan array binding signal (z-score),[5],-0.333
same,glycan array binding signal (z-score),[6],-0.298
same,glycan array binding signal (z-score),[7],-0.345
same,glycan array binding signal (z-score),[8],-0.316
same,glycan array binding signal (z-score),[9],-0.33
same,glycan array binding signal (z-score),[10],-0.317
same,glycan array binding signal (z-score),[11],-0.33
same,glycan array binding signal (z-score),[12],-0.328
same,glycan array binding signal (z-score),[13],-0.324
same,glycan array binding signal (z-score),[14],-0.329
same,glycan array binding signal (z-score),[15],-0.342
same,glycan array binding signal (z-score),[16],-0.343
same,glycan array binding signal (z-score),[17],-0.345
same,glycan array binding signal (z-score),[18],-0.341
same,glycan array binding signal (z-score),[19],-0.339
same,glycan array binding signal (z-score),[20],-0.335
same,glycan array binding signal (z-score),[21],-0.328
same,glycan array binding signal (z-score),[22],-0.329
same,glycan array binding signal (z-score),[23],-0.33
same,glycan array binding signal (z-score),[24],-0.336
same,glycan array binding signal (z-score),[25],-0.338
same,glycan array binding signal (z-score),[26],-0.339
same,glycan array binding signal (z-score),[27],-0.329
same,glycan array binding signal (z-score),[28],-0.324
same,glycan array binding signal (z-score),[29],-0.338
same,glycan array binding signal (z-score),[30],-0.34
same,glycan array binding signal (z-score),[31],-0.336
same,glycan array binding signal (z-score),[32],-0.338
same,glycan array binding signal (z-score),[33],-0.332
same,glycan array binding signal (z-score),[34],-0.344
same,glycan array binding signal (z-score),[35],-0.343
same,glycan array binding signal (z-score),[36],-0.282
same,glycan array binding signal (z-score),[37],-0.334
same,glycan array binding signal (z-score),[38],-0.332
same,glycan array binding signal (z-score),[39],-0.325
same,glycan array binding signal (z-score),[40],-0.333
same,glycan array binding signal (z-score),[41],-0.336
same,glycan array binding signal (z-score),[42],-0.343
same,glycan array binding signal (z-score),[43],-0.318
same,glycan array binding signal (z-score),[44],-0.333
same,glycan array binding signal (z-score),[45],-0.329
same,glycan array binding signal (z-score),[46],-0.329
same,glycan array binding signal (z-score),[47],-0.335
same,glycan array binding signal (z-score),[48],-0.245
same,glycan array binding signal (z-score),[49],-0.328
same,glycan array binding signal (z-score),[50],-0.333
same,glycan array binding signal (z-score),[51],-0.331
same,glycan array binding signal (z-score),[52],-0.343
same,glycan array binding signal (z-score),[53],-0.347
same,glycan array binding signal (z-score),[54],-0.325
same,glycan array binding signal (z-score),[55],-0.338
same,glycan array binding signal (z-score),[56],0.37
same,glycan array binding signal (z-score),[57],-0.259
same,glycan array binding signal (z-score),[58],-0.331
same,glycan array binding signal (z-score),[59],-0.336
same,glycan array binding signal (z-score),[60],-0.328
